About 14,000 (4.5%) of roughly 310,000 compounds showed an effect of 50% or more. Effects have a minus sign here. This is one part of the list.
target: human ether-à-go-go-related gene (hERG) potassium channel (human, UniProt Q12809); assay: primary screen, population patch clamp on CHO cells stably expressing hERG
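Further: peak tail current of the secondary pulse compared with the same well before compound.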

human ether-à-go-go-related gene (hERG) potassium channel, sequence (Q12809 whole entry, looked up): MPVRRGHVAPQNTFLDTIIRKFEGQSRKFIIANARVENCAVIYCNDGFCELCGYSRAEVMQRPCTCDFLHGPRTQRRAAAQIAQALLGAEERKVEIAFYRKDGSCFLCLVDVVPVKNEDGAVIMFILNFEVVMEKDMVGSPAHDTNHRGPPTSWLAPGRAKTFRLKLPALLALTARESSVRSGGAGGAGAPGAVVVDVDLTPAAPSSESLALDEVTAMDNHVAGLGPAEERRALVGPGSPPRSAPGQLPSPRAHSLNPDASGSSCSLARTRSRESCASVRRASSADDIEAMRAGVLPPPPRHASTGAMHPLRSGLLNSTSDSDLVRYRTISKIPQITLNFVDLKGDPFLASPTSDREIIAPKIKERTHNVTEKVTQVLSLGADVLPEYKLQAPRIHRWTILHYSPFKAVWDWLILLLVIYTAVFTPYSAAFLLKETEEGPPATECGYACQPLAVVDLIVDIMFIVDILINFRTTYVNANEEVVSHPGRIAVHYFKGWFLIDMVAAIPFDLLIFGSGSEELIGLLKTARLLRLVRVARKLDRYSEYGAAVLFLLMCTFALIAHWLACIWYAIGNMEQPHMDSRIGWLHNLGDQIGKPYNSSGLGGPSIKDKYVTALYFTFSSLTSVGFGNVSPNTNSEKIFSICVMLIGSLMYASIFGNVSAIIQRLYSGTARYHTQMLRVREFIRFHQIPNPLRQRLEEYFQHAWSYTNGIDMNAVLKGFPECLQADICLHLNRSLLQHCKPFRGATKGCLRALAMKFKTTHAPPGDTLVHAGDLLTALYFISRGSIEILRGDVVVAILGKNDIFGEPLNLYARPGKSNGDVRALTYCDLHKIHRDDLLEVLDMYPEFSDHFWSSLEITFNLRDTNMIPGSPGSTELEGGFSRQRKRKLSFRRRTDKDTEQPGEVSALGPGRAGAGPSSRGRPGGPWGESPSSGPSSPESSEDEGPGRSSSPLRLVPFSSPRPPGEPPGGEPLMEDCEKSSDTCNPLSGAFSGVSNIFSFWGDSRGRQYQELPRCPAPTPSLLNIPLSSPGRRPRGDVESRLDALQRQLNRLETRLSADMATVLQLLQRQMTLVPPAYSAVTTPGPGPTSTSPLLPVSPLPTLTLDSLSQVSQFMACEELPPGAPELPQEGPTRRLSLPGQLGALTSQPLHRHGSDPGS

SMILES | hERG current change (%, negative = inhibition) at 10uM [%]
O=C(NNc1cc(Cl)cc(Cl)c1)c1cccs1 | 6.12
O=c1[nH]c(C2CCCN(S(=O)(=O)c3cccc(F)c3)C2)nc2c1nnn2Cc1ccccc1 (stereo not drawn) | 8.49
CN1CCN(/C(=N\S(=O)(=O)c2ccc(F)cc2)c2ccccc2)CC1 | 7.32
COc1ccc(Cc2nnc(NS(C)(=O)=O)s2)cc1 | 3.9
CCN(CCC(=O)Nc1ccc(Br)c(C)c1)Cc1ccccc1.Cl | -36.8
O=C(CNC(=O)c1cccs1)N/N=C/c1ccc(O)cc1O | 6.77
O=C(OCC(=O)N1CCN(C(=O)c2ccco2)CC1)c1ccc(Cl)c(Cl)c1 | -62.9
Cn1cnc([N+](=O)[O-])c1SCCO | 17.1
CC(=O)N1CCN(c2nnc(-c3ccc(C)cc3)c3ccccc23)CC1 | -38.6
Cc1[nH]c2ccccc2c1[C@H]1[C@@H](CC#N)C1(C)C | -8.25
Cc1nnc(SCC(=O)NC2CCCCCC2)n1C | 23.4
CC(=O)c1c(C(C)=O)c(C)n(-c2ccc3ncccc3c2)c1C | 21
O=C1CC2(CCN(C(=O)c3ccc(Br)cc3)CC2)Oc2ccccc21 | -73.5
COCc1nc2sc(C)c(C)c2c(=O)[nH]1 | 6.34
CC(C)C[C@@H](CO)N1CCN(Cc2ccc(O)cc2)CCC1=O | 4.53
O=C(c1ccccc1Cl)N1CCN(c2ncccn2)CC1 | 1.44
CC(=O)N1N=C(c2cccc(Br)c2)OC12CCCC2 | 2.24
COc1cccc(/C=N/NC(=O)c2cc(-c3ccccn3)nc3ccccc23)c1O | 7.5
CCOc1cc(CNc2ccc(N3CCCC3)cc2)cc(Cl)c1OC | -6.14
COc1ccc(C2/C(=C(/O)c3ccccc3)C(=O)C(=O)N2c2ncccn2)cc1OC (stereo not drawn) | 7.54
COc1ccc(CNC(=O)COC(=O)c2ccco2)cc1 | 28.3
NC(=O)c1c(NC(=O)Cn2cnc([N+](=O)[O-])n2)sc2c1CCCC2 | -11.4

SMILES | hERG current change (%, negative = inhibition) at 10uM [%]
CC(C)N1CCc2c(sc(NC(=O)c3ccc(S(=O)(=O)N(C)CC4CCCO4)cc3)c2C(N)=O)C1.Cl (stereo not drawn) | -12.8
CCOc1ccc(/C=N/NC(=O)CN2CCSCC2)cc1 | 1.7
COc1ccc(CC(=O)NCC(c2ccc(OC)cc2)N(C)C)cc1 (stereo not drawn) | 13.7
COCCN(C(=O)COC(=O)c1ccc2[nH]c(C)c(C)c2c1)c1c(N)n(Cc2ccccc2)c(=O)[nH]c1=O | 1.46
CCOc1ccccc1NC(=O)CCc1nnc2ccc(N3CCC4(CC3)OCCO4)nn12 | -5.37
CCOc1ccc(NC(=O)CSc2nnc(C)n2Cc2ccccc2)cc1 | -16.4
COc1ccc(/C=C/C(=O)Nc2ccc(S(=O)(=O)Nc3onc(C)c3C)cc2)cc1OC | 29.6
COc1ccc(C(=O)NCCCOC(C)C)cc1OC1CCN(C(C)=O)CC1 | 17.1
COc1ccc(C(=O)OCC(=O)Nc2ccc(Cl)cn2)cc1 | 22.8
CCN(CC)CCNc1ncnc2c1[nH]c1ccc(OC)cc12 | -63.4
O=C(Cn1nnc(-c2ccccc2-n2cnnn2)n1)N1CCCCC1 | 2.63
COc1cccc(C(=O)NCCCn2ccnc2)c1 | 7.29
CCCC1(C)NC(=O)c2ccccc2O1 (stereo not drawn) | 4.99
COc1ccc(/C=N/NC(=O)CC(=O)N/N=C/c2ccc(OC)cc2)cc1 | 0.563
Cc1ccsc1/C=N/Nc1ccc(Cl)nn1 | 7.14
Cl.O=C1NCC2(CCN(CCc3ccccc3)CC2)O1 | 20.8
COc1cc2c(cc1OC)CN(C(=O)c1ccc(S(=O)(=O)N(C)c3ccccc3)cc1)CC2 | -30.1
Cc1c(S(=O)(=O)N2CCCC(C(=O)O)C2)cnn1C (stereo not drawn) | 16.8
CN(C)CCNC(=O)c1onc(CSc2ccc(F)cc2)c1C(=O)NCCN(C)C | 3.62
Cn1nc(-c2ccccc2)c(-c2nc(-c3ccc(Cl)cc3)no2)c1Cl | 6.65
CC1(C)CC(=O)C2=C(C1)N(Cc1cccnc1)C(=O)C2(NC(=O)c1ccc(F)cc1)C(F)(F)F (stereo not drawn) | -11
COCCNC(=O)/C(C#N)=C/c1c(N2CCN(c3ccccc3)CC2)nc2c(C)cccn2c1=O | 5.92

SMILES | hERG current change (%, negative = inhibition) at 10uM [%]
CCC(=O)c1ccc(N2CCN(C(=O)COc3ccc(F)cc3)CC2)c(F)c1 | -73.4
O=C(Nc1cccc([N+](=O)[O-])c1)c1cccc(C(=O)Nc2cccc([N+](=O)[O-])c2)c1 | 24.1
COc1ccc(CCNC(=O)C(=O)NCC2OCCN2S(=O)(=O)c2ccc3c(c2)OCCO3)cc1 (stereo not drawn) | -6.31
CC(C)OC(=O)c1cc(NC(=O)C2C3C=CC(O3)C2C(=O)O)cc(C(=O)OC(C)C)c1 (stereo not drawn) | -1.28
O=C(CN1C(=O)NC2(CCCCC2)C1=O)N1CCOCC1 | 1.01
Cc1nc(N2CCOCC2)nc(OC(C)C)c1[N+](=O)[O-] | -1.05
CCn1ncc(Br)c1C(=O)Nc1cc(C)ccc1F | -1.52
Cc1ccc(C)c2sc(NC(=O)c3ccc(N4C(=O)CCC4=O)cc3)nc12 | -2.32
COc1ccc(C(=O)C[n+]2ccc3c(c2)nc(-c2ccccc2)n3C)cc1.[Br-] | -1.44
COc1cccc(-c2cc3c(=O)n(-c4ccccc4)c(=S)[nH]c3s2)c1 | 5.62
COc1ccc(OC)c(NC(=O)C(C)N2c3cccc4cccc(c34)S2(=O)=O)c1 (stereo not drawn) | 18.7
Cc1ccccc1C(=O)c1c[nH]c(C(=O)N2CCN(c3ccccc3F)CC2)c1 | -5.6
CCn1c(O)c(N=NC(=O)CNc2cccc(C)c2)c2ccccc21 | 0.933
COc1cc(NC(=O)c2noc3c2CCCC3)c(OC)cc1Cl | 12.7
COc1cccc(CN2CCN(c3nc4nonc4nc3N3CCCCC3)CC2=O)c1 | -23.6
CCOc1ccc(C(=O)NC(C)C2COc3ccccc3O2)cc1 (stereo not drawn) | -26.2
COCCSc1nc2sc3c(c2c(=O)n1-c1ccccc1)CCN(C)C3 | 5.82
CCCCNC(=O)NS(=O)(=O)c1ccc(C(=O)OC)o1 | 0.98
CCOc1ccccc1NCc1cc(=O)oc2cc(C)c(O)cc12 | 17.9
Cc1ccc(-c2csc(NC(=O)CN3CC(C)OC(C)C3)n2)cc1 (stereo not drawn) | -5.28
CC(C)(C)CC(=O)NC(=S)NCc1ccccc1 | 11.4
O=C(NCC1CCCO1)C1CCCN(S(=O)(=O)c2ccc(Br)cc2)C1 (stereo not drawn) | -12.8

SMILES | hERG current change (%, negative = inhibition) at 10uM [%]
Cc1[nH]c(C)c(S(=O)(=O)N2CCN(c3cccc(C(F)(F)F)c3)CC2)c1C(=O)N1CCCCC1 | -1.72
Cc1nnc(SCC(=O)N2CC(=O)Nc3ccccc32)n1-c1ccccc1 | 21.6
Cc1ccc(OCCN2CCCCCC2)c(C)c1 | -34.6
O=C1CCCN2N=C(SCC(=O)Nc3ccc(OC(F)(F)F)cc3)SC2=N1 | 15.7
Cc1nc2c(-c3ccccc3)c[nH]n2c(=O)c1Cc1ccccc1 | 10.6
CCOc1ccccc1CN1CCN(Cc2c[nH]c3ccccc23)CC1CCO (stereo not drawn) | -6.71
Cc1nnc(SC(C)C(=O)Nc2sc3c(c2C#N)CCCC3)[nH]c1=O (stereo not drawn) | 15.2
CCOC(=O)COc1cccc2c(=O)n(CC(=O)N3CCN(C(=O)OCC)CC3)ccc12 | 7.65
CCCCCn1cc(C(=O)C(=O)N2CCOCC2)c2ccccc21 | -26.3
CC(/C=C/c1ccccc1)=N/NC(=O)CNC(=O)c1ccccc1F | 0.863
CCN(CC(=O)NC1CCS(=O)(=O)C1)S(=O)(=O)c1ccc(Cl)cc1C(F)(F)F (stereo not drawn) | -18.8
CC(C)C[C@@]12C(=O)N(c3cccc(F)c3)C(=O)N1[C@H](c1ccc(Br)cc1)[C@@H]1C(=O)N(C(C)(C)C)C(=O)[C@@H]12 | 3.89
Cc1ccc(C(=O)OCCN2CCN(c3ncc(C(F)(F)F)cc3Cl)CC2)cc1 | -2.06
O=C(NCc1ccccc1)C1COc2ccccc2O1 (stereo not drawn) | -2.05
CN1CCN(c2nc3ccccc3c(=O)n2-c2ccccc2)CC1 | -8.48
CSCCC(NC(=O)COc1ccccc1)C(=O)NCCOc1ccc(C)cc1 (stereo not drawn) | -7.97
CC(=O)c1ccc(C(=O)N2CCCC(CCC(=O)N(C)CCc3ccccn3)C2)s1 (stereo not drawn) | 11.4
O=C(NCC1CCCO1)C1CCN(CC2CCCCC2)CC1 (stereo not drawn) | -2.1
CCN(CC)CCCNC(=O)C1CCN(C(=O)c2cc3sccc3n2Cc2ccc(F)cc2)CC1 | -2.11
COc1ccc(-c2nnc3sc(CN4C(=O)c5ccccc5C4=O)nn23)cc1 | 2.51
COc1ccc(NC(=O)C(c2cc3c(cc2[N+](=O)[O-])OCO3)N2CCN(C=O)CC2)cc1 (stereo not drawn) | -47.7
